Experimental data from patent US20260124226A1 (priority 2023, published 2026).

Legend:
HepG2 = assay: EIDD-2749 cytotoxicity; format: cell-based; details: HepG2 cells
RAW264.7 cells = assay: Cytotoxicity (CC50) run with the norovirus assay
[1] = pH 1.3
Experimental: Briefly, EIDD-3232 was incubated in triplicate at 50.0 μM (1.25 μL of a 40 mM DMSO solution in 999 L) in simulated gastric fluid (SGF: 0.200 (w/v) NaCl in 0.700 (v/v) concentrated HCl, Ricca, Lot 2202943) in 2-mL HPLC vials. Vials were pre-incubated in LC autosampler set at 37° C. for at least 15 minutes prior to spiking the SGF with the drug. Vials were placed back in the 37° C.-autosampler and injections were made at times: 0, 0.5, 1, 1.5, 2, 2.5, 3, 3.5, and 4 hours and analyzed by LC-MS/MS. No internal standard was used.
(§1) For EIDD-3232, the mobile phase was isocratic using 18% A: 100 mM ammonium formate in water+0.1% (v/v) formic acid and 82% B: acetonitrile+0.1% (v/v) formic acid at a flow rate of 1000 L/min with a run time of about 3 minutes.

[2] = pH 5.2
Experimental: Vials were pre-incubated in LC autosampler set at 37° C. for at least 15 minutes prior to spiking the SGF with the drug. Vials were placed back in the 37° C.-autosampler and injections were made at times: 0, 0.5, 1, 1.5, 2, 2.5, 3, 3.5, and 4 hours and analyzed by LC-MS/MS. No internal standard was used.
as §1

[3] = mouse, in vivo, po, 10 mg/kg

In the case of `O=c1ccn([C@@H]2O[C@](F)(CO)[C@@H](O)[C@H]2O)c(=O)[nH]1` [EIDD-2749, 4′-fluorouridine], the CC50 (HepG2) is reported as > 400 µM and the CC50 (RAW264.7 cells) is reported as > 100 µM.
In the case of `CC(C)OC(=O)[C@H](C)N[P@](=O)(OC[C@@]1(F)O[C@@H](n2ccc(=O)[nH]c2=O)[C@H](O)[C@@H]1O)Oc1ccccc1` [EIDD-3232, isopropyl ((S)-(((2S,3S,4R,5R)-5-(2,4-dioxo-3,4-dihydropyrimidin-1(2H)-yl)-2-fluoro-3,4-dihydroxytetrahydrofuran-2-yl)methoxy)(phenoxy)phosphoryl)-L-alaninate], the “EIDD-2749 production in SGF” value [1] is reported as “negligible”, the “uracil (degradant) as % of the time-zero concentration” value [1] is reported as < 8% and the “EIDD-2749 production in SIF” value [2] is reported as “negligible”. The “metabolites/degradants detected (lower limit of quantitation)” value [2] was ≤ 0.125 µM, the uracil average concentration [2] was 0.152 µM and the “Cmax of the analyte” value [3] was “BQL”. For the same compound, the EIDD-3232 in plasma [3] was “not observed” and the EIDD-3321 in plasma [3] was “BQL”.
